Source: the supplement of paper PMC7726561
Over roughly 1,400 sequences, “thermal melting temperature (Tm) of peptide-HLA complex” has its median near 60; the lowest 2% begin near 45. This is one part of the list.

These sequences were tested against HLA-B*07:02 (assay: thermal melting temperature (Tm) of peptide-HLA complex; higher = more thermostable pHLA complex). Settings: C1R-B*07:02.
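Also: cell lysates heated 10 min at 37–73 °C, remaining pHLA pulled down with pan-class I antibody, peptides quantified by DIA-MS versus 37 °C, Tm where half the complex is lost.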

Row | Sequence | thermal melting temperature [°C]
1 | SPRPAPLLL | 62.3
2 | HPRKGFPGSL | 45
3 | SPSFPRPSL | 61.4
4 | SPQDFGLVL | 60.7
5 | IPYKPNYSL | 60.3
6 | GPRAVFVLL | 62.4
7 | APRALLQDVL | 61.9
8 | APIDRVGQTI | 53.3
9 | LPKPPGRGV | 59.2
10 | SPRLSQTFLQL | 61
11 | KPYTPVSGSLL | 58.3
12 | KPYQGNPTF | 57.5
13 | APEVAKSWAAL | 62
14 | APAGRKVGL | 61.2
15 | SPTYRALLL | 62
16 | KPSSFTTSF | 50.9
17 | VPFERPAVI | 61.2
18 | VPRAILVDL | 62.4
19 | RPADVIFATV | 59

Row | Sequence | thermal melting temperature [°C]
20 | LPRGSSPSVL | 59.5
21 | VPEEARPAL | 58.4
22 | MPQSGTGVSV | 49.5
23 | FPSEPNRLL | 57.6
24 | RPDPAGHLTL | 56
25 | LPSPFLRAL | 60.7
26 | HPRVGDLIL | 58.5
27 | LPSGQRAGFL | 60.2
28 | KPSPIYGGL | 53.7
29 | SPAPKQEL | 55
30 | QPSFPTPQL | 62.1
31 | RPRPGNILLQL | 55.6
32 | TPKMPGQSV | 56.1
33 | APIIRVGGAL | 59.9
34 | LPRAFLQSL | 62.4
35 | RPAIVQNITF | 60.3
36 | KPWLRALQL | 59.7
37 | SPVLRNFTF | 41.7
38 | APPVRPQNSL | 55.2

Row | Sequence | thermal melting temperature [°C]
39 | RPASPPVVKL | 59
40 | RPLPGALGV | 59
41 | LPAPSWRAL | 62.9
42 | RPDSPAHVL | 58.7
43 | SPQLGRAVQLL | 62.6
44 | APRAGQPLQL | 59.4
45 | FPHLREEIL | 51.6
46 | LPRGLAGAL | 63
47 | FPIHVQTSL | 60.9
48 | YPLPAVKVSM | 59.8
49 | TPRPTAAEL | 59
50 | QPATPGLGM | 57
51 | NPTQVGTAL | 57.1
52 | YLRDTLLAL | 53.6
53 | RPAPVAVAA | 53.4
54 | GPRPITQSEL | 60.9
55 | LPRGGLTSI | 60.7
56 | VPKPPSIEEF | 62.3
